The whole screen tested about 39,000 compounds, of which about 220 (0.56%) showed activity. The list shows a part of the results.
system: Escherichia coli K-12 BW25113; experiment: relative growth (OD600 normalised to plate interquartile mean) (fraction); higher = less growth inhibition, active = 0.2 or less; conditions: 50 µM; LB; incubation time: overnight (16-24 h)
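Note: static incubation at 37 °C against the wild-type strain, values averaged over two biological replicates.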

Q: For `CS(=O)(=O)N1CCC(CN)CC1`, which relative growth is on record?
A: Its relative growth is inactive: 0.957.

Q: `C[C@@H]1CN([C@@H](C)CO)C(=O)Cc2cc(NC(=O)Cc3ccccc3)ccc2O[C@H]1CN(C)Cc1ccc(Cl)c(Cl)c1` was tested. Which relative growth did it give?
A: Its relative growth is inactive: 1.03.

Q: `CN(C)CCN1CC2(CCN(C(=O)c3cnccn3)CC2)OCC1=O` was tested. Which relative growth did it give?
A: The relative growth was inactive: 1.04.

Q: For `O=C(C[C@H]1CC[C@H]2[C@@H](COC[C@H](O)CN2C(=O)c2ccccn2)O1)NC1CCC1`, which relative growth is on record?
A: The relative growth was inactive: 1.01.

Q: Which relative growth does the source give for `COc1ccc([C@H]([C@H](Cc2ccccc2)OC(C)=O)N(C[C@@H](/C=C/c2ccccc2)CC(=O)N(C)C)[C@@H](Cc2ccccc2)C(OC)OC)cc1` here?
A: Its relative growth is inactive: 1.01.

Q: For `CCC[C@@H]1C[C@@H](C(=O)N[C@H]([C@H]2O[C@H](SC)[C@H](O)[C@@H](O)[C@H]2O)[C@@H](C)Cl)N(C)C1`, which relative growth is on record?
A: Its relative growth is inactive: 0.843.

Q: With `C[C@@H]1CN([C@H](C)CO)C(=O)Cc2cc(NC(=O)Cn3cnnn3)ccc2O[C@@H]1CN(C)Cc1ccc(Oc2ccccc2)cc1` as the molecule, how does the relative growth read?
A: The relative growth was inactive: 1.03.

Q: How did the relative growth turn out when `COc1ccc(S(=O)(=O)Nc2ccc3c(c2)CC(=O)N([C@H](C)CO)C[C@H](C)[C@@H](CN(C)C(=O)NC(C)C)O3)cc1` was run?
A: Its relative growth is inactive: 1.01.

Q: How did the relative growth turn out when `NC(=O)CSc1ccccn1` was run?
A: Its relative growth is inactive: 1.02.

Q: With `CO[C@@]1(C(=O)NN)COc2ccccc2O1` as the molecule, how does the relative growth read?
A: Its relative growth is inactive: 1.03.

Q: Which relative growth does the source give for `Cc1nc(N2CCC3(CC2)CO[C@@H](C)[C@H]3N)c(CO)nc1-c1cccc(Cl)c1Cl` here?
A: Its relative growth is inactive: 0.968.

Q: How did the relative growth turn out when `Cc1ccc(S(=O)(=O)N(C)C[C@H]2OCCCC[C@@H](C)Oc3ccc(NC(=O)CCC(F)(F)F)cc3C(=O)N([C@H](C)CO)C[C@@H]2C)cc1` was run?
A: Its relative growth is inactive: 1.02.

Q: For `COc1ccc(NC(=O)Nc2ccc3c(c2)C(=O)N([C@H](C)CO)C[C@H](C)[C@@H](CN(C)S(=O)(=O)c2cccs2)OCCCC[C@H](C)O3)cc1`, which relative growth is on record?
A: Its relative growth is inactive: 1.04.

Q: With `Cc1ccc(S(=O)(=O)Nc2ccc3c(c2)CC(=O)N([C@@H](C)CO)C[C@@H](C)[C@H](CN(C)S(=O)(=O)c2cccs2)O3)cc1` as the molecule, how does the relative growth read?
A: Its relative growth is inactive: 0.985.

Q: With `C[C@@H]1CCCCO[C@H](CN(C)CC2CC2)[C@H](C)CN([C@@H](C)CO)C(=O)c2cc(NC(=O)C3CCCCC3)ccc2O1` as the molecule, how does the relative growth read?
A: The relative growth was inactive: 0.871.

Q: `COC(=O)c1ccccc1S(=O)(=O)NC(=O)Nc1nc(C)c2c(n1)CCS(=O)(=O)C2` was tested. Which relative growth did it give?
A: Its relative growth is inactive: 1.01.

Q: With `C[C@@H]1CN([C@H](C)CO)C(=O)c2cccc(NC(=O)Nc3cccc4ccccc34)c2O[C@@H]1CN(C)CC1CCCCC1` as the molecule, how does the relative growth read?
A: The relative growth was inactive: 0.999.

Q: With `CCS(=O)(=O)Nc1ccc2c(c1)C(=O)N(C)[C@@H]1CC[C@H](CC(=O)NCCOC)O[C@H]1CO2` as the molecule, how does the relative growth read?
A: The relative growth was inactive: 0.986.

Q: How did the relative growth turn out when `COc1ccc(NC(=O)Nc2ccc3c(c2)C(=O)N([C@H](C)CO)C[C@@H](C)[C@H](CN(C)C(=O)Nc2ccc4c(c2)OCO4)OCCCC[C@@H](C)O3)cc1` was run?
A: The relative growth was inactive: 1.03.

Q: `C[C@@H]1CN([C@@H](C)CO)C(=O)c2cc(NS(=O)(=O)c3cccs3)ccc2O[C@@H]1CN(C)Cc1ccc(-c2ccccc2)cc1` was tested. Which relative growth did it give?
A: Its relative growth is inactive: 0.975.

Q: How did the relative growth turn out when `C[C@@H]1CN([C@@H](C)CO)C(=O)c2cc(NS(=O)(=O)c3ccc(Cl)cc3)ccc2O[C@@H](C)CCCCO[C@H]1CN(C)CC1CCCCC1` was run?
A: Its relative growth is inactive: 0.979.

Q: Which relative growth does the source give for `CC(C)NC(=O)N(C)C[C@@H]1Oc2ccc(NC(=O)Nc3ccc4c(c3)OCO4)cc2CC(=O)N([C@@H](C)CO)C[C@@H]1C` here?
A: Its relative growth is inactive: 0.979.

Q: `O=C(C[C@@H]1C[C@@H]2c3cc(NC(=O)NC4CCCC4)ccc3O[C@@H]2[C@@H](CO)O1)NCc1ccc2c(c1)OCO2` was tested. Which relative growth did it give?
A: The relative growth was inactive: 1.02.

Q: With `C[C@@H]1CCCCO[C@@H](CN(C)C(=O)Nc2ccc3c(c2)OCO3)[C@H](C)CN([C@@H](C)CO)C(=O)c2cc(NC(=O)Nc3cccc4ccccc34)ccc2O1` as the molecule, how does the relative growth read?
A: The relative growth was inactive: 1.06.

Q: Which relative growth does the source give for `NCC[C@H](O)C(=O)N[C@@H]1C[C@H](N)[C@@H](O[C@H]2O[C@H](CN)[C@@H](O)[C@H](O)[C@H]2O)[C@H](O)[C@H]1O[C@H]1O[C@H](CO)[C@@H](O)[C@H](N)[C@H]1O` here?
A: The relative growth was active: 0.0379.

Q: With `Cc1ccc(S(=O)(=O)Nc2ccc3c(c2)C(=O)N([C@@H](C)CO)C[C@H](C)[C@H](CN(C)Cc2ccc(Cl)c(Cl)c2)O3)cc1` as the molecule, how does the relative growth read?
A: Its relative growth is inactive: 0.983.

Q: For `C[C@@H]1CN([C@@H](C)CO)C(=O)c2cccc(NS(=O)(=O)c3ccc(F)cc3)c2O[C@@H]1CN(C)S(C)(=O)=O`, which relative growth is on record?
A: Its relative growth is inactive: 0.953.

Q: How did the relative growth turn out when `CC(=O)N[C@H](Cc1ccc2ccccc2c1)C(=O)N[C@H](Cc1ccc(Cl)cc1)C(=O)N[C@H](Cc1cccnc1)C(=O)N[C@@H](CO)C(=O)N(C)[C@@H](Cc1ccc(O)cc1)C(=O)N[C@H](CC(N)=O)C(=O)N[C@@H](CC(C)C)C(=O)N[C@@H](CCCCNC(C)C)C(=O)N1CCC[C@H]1C(=O)N[C@H](C)C(N)=O` was run?
A: Its relative growth is inactive: 1.

Q: Which relative growth does the source give for `C[C@H](CO)N1C[C@H](C)[C@@H](CN(C)C(=O)CCC(F)(F)F)OCCCC[C@H](C)Oc2ccc(NC(=O)C3CCCCC3)cc2C1=O` here?
A: The relative growth was inactive: 0.982.

Q: Which relative growth does the source give for `C[C@@H]1O[C@@H](O[C@@H]2C=C(CO)[C@H]3[C@H](O[C@@H]4O[C@H](CO)[C@@H](O)[C@H](O)[C@H]4O)OC=C[C@H]32)[C@H](O)[C@H](O)[C@H]1OC(=O)/C=C/c1ccccc1` here?
A: The relative growth was inactive: 0.989.

Q: How did the relative growth turn out when `Cc1cc(C(=O)Nc2cccc3c2O[C@@H](CN(C)S(=O)(=O)c2c(C)noc2C)[C@@H](C)CN([C@H](C)CO)C3=O)n(C)n1` was run?
A: The relative growth was inactive: 1.03.

Q: Which relative growth does the source give for `COCC#Cc1ccc2c(c1)O[C@@H](CN(C)C(=O)C1CCOCC1)[C@H](C)CN([C@@H](C)CO)S2(=O)=O` here?
A: The relative growth was inactive: 1.01.

Q: How did the relative growth turn out when `C[C@@H]1CN([C@@H](C)CO)S(=O)(=O)c2ccc(C#CC3CC3)cc2O[C@@H]1CN(C)Cc1cccc(F)c1` was run?
A: Its relative growth is inactive: 1.02.

Q: With `COc1ccc(CN(C)C[C@@H]2Oc3ccc(NC(=O)Nc4cccc5ccccc45)cc3C(=O)N([C@@H](C)CO)C[C@@H]2C)cc1` as the molecule, how does the relative growth read?
A: The relative growth was inactive: 0.968.

Q: Which relative growth does the source give for `Cc1ccc(S(=O)(=O)N(C)C[C@@H]2Oc3cc(Br)ccc3S(=O)(=O)N([C@@H](C)CO)C[C@@H]2C)cc1` here?
A: The relative growth was inactive: 1.04.
